# Test results published in PubChem BioAssay AID504333 (National Center for Advancing Translational Sciences (NCATS), 2011).
# Out of some 360,000 compounds screened, about 16,000 (4.4%) were called active. The shares of active, inactive and inconclusive entries below differ from those in the screen. Calls come from the whole dose curve; as a rule, active = well fitted inhibition curve with a large enough effect; inconclusive = small, poorly fitted or top-dose-only effect; inactive = no such curve, though single readings can be large or run the other way. Potencies beside an inconclusive call are fits to weak or partial responses and may not hold up.
# Biological target: Bromodomain adjacent to zinc finger domain protein 2B (Homo sapiens) (UniProt Q9UIF8)
# Chain of UniProt Q9UIF8 (Q9UIF8 whole entry, looked up, the tested form may be a part): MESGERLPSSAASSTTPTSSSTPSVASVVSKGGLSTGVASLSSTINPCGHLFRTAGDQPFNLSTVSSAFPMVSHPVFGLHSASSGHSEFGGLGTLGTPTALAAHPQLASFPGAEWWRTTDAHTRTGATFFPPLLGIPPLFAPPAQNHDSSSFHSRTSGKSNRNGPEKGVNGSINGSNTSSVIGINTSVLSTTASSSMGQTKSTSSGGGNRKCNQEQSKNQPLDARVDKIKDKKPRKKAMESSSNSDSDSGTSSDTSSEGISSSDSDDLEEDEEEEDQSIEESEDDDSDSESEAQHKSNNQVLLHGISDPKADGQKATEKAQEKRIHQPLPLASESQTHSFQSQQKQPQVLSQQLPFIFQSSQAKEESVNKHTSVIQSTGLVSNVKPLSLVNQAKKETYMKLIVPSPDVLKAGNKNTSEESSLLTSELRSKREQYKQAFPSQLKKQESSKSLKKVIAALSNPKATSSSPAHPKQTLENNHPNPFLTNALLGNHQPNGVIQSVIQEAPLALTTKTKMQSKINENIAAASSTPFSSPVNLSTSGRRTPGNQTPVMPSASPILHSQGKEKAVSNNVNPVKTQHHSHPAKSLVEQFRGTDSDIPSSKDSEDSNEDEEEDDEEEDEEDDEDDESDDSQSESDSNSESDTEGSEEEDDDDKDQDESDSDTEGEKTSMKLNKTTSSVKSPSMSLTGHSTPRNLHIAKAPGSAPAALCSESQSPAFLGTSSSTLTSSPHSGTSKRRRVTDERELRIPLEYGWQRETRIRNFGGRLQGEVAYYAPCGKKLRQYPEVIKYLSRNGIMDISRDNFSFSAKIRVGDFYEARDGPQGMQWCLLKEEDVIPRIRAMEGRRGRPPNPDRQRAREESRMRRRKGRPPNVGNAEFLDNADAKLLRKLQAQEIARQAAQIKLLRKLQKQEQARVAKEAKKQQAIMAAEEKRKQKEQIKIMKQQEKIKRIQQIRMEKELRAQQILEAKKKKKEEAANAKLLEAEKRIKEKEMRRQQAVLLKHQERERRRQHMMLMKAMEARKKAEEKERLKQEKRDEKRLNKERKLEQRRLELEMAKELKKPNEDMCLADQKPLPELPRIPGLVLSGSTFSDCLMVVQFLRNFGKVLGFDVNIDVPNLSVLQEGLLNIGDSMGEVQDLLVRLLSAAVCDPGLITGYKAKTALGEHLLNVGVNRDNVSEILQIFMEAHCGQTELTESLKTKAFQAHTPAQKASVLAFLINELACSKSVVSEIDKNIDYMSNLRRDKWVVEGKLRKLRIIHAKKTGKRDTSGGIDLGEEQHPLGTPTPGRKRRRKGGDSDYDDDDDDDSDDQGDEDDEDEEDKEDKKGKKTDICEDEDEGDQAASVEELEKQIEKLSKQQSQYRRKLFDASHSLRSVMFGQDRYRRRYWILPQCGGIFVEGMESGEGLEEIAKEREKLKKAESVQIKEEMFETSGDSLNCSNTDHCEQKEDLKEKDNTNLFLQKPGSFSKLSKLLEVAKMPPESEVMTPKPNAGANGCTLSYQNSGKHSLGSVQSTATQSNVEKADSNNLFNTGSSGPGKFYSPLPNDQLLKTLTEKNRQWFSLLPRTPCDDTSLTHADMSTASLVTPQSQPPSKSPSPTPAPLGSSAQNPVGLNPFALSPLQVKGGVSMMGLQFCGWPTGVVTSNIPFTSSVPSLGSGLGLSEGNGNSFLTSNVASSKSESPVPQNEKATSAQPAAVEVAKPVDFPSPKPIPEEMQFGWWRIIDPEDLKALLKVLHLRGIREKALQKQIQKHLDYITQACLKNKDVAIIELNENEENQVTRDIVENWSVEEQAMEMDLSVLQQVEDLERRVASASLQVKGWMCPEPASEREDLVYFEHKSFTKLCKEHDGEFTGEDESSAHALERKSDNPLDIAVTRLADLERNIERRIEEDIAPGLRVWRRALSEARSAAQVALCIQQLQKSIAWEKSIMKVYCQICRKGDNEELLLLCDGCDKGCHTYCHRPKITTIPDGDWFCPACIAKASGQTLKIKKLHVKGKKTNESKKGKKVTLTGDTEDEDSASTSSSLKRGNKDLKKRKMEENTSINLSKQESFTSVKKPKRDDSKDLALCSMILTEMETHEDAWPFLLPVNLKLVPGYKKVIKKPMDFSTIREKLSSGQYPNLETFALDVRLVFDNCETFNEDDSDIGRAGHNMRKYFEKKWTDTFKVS
# Assay: qHTS Assay for Inhibitors of BAZ2B; note: nearly all actives have a fitted effect of over 60% in size
# Conditions: AlphaScreen BAZ2B-H3K14Ac peptide displacement; series mostly up to 114 µM
# Method in brief: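 AlphaScreen luminescence quantifies BAZ2B engagement of H3K14Ac peptide; the protein and biotinylated peptide are both at 50 nM final, buffer PBS pH 7.4 with 0.01% Tween-20, all steps at room temperature.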
# Potency is the fitted concentration of half-maximal effect; tags give direction and shape of the fitted curve.
row,Structure (SMILES),Potency
1,COc1ccc(-n2nc([N+](=O)[O-])c(=NCc3ccc4c(c3)OCO4)n2O)cc1,"inconclusive: 44.7 µM [inhibitor, partial curve]"
2,COc1cccc(N2CC(C(=O)Nc3nnc(SCc4ccccn4)s3)CC2=O)c1 (stereo not drawn),"inconclusive: 70.8 µM [inhibitor, partial curve]"
3,OC(CNCC(c1ccco1)N1CCCCC1)c1ccccc1 (stereo not drawn),active: 50.1 µM
4,Cc1occc1-c1nnc(SCC(=O)c2ccc(Cl)cc2)n1CC1CCCO1 (stereo not drawn),"inconclusive: 79.4 µM [inhibitor, single point]"
5,O=C(c1cccs1)c1no[n+]([O-])c1C(=O)c1cccs1,"inconclusive: 89.1 µM [inhibitor, single point]"
6,COc1cc(NCCCCCCCN)c2ncccc2c1,"inconclusive: 89.1 µM [inhibitor, single point]"
7,O=C(CSc1ccccc1)N1CCCC(N2CCN(c3ccc(F)cc3)CC2)C1 (stereo not drawn),"inconclusive: 35.5 µM [inhibitor, partial curve]"
8,Clc1ccc(OCCCn2ccnc2)c(Br)c1,active: 31.6 µM
9,Cn1cc(CCCC(=O)NCc2ccccc2)c2ccccc21,"inconclusive: 70.8 µM [inhibitor, single point]"
10,COc1cccc(NC(=O)c2nn(-c3ccc(C)cc3)c(=O)n(C)c2=O)c1,inactive
11,CSC(=S)N/N=C/c1ccccc1,active: 12.6 µM
12,CN(CC(=O)Nc1c(Cl)cccc1Cl)C(=O)C1CC(=O)N(Cc2ccccc2)C1 (stereo not drawn),"inconclusive: 89.1 µM [inhibitor, single point]"
13,CCOc1ccc(NC(=O)CSc2ncc(-c3ccc(F)cc3)n2Cc2ccco2)cc1,active: 8.91 µM
14,Cc1cccc(N2CCN(C(=O)c3cc4c(=O)oc5ccccc5c4s3)CC2C)c1 (stereo not drawn),inactive
15,O=C(NCC1CCCO1)c1ccc(-c2cccc(C(F)(F)F)c2)o1 (stereo not drawn),inactive
16,O=C1/C(=C/c2ccco2)Cc2ccccc21,"inconclusive: 79.4 µM [inhibitor, single point]"
17,CCOc1ccc(/C=C2\SC(=S)N(CCC(=O)N(CCO)c3ccccc3)C2=O)cc1,"inconclusive: 22.4 µM [inhibitor, partial curve]"
18,COc1ccc(C(=O)N2CCN(Cc3ccccc3[N+](=O)[O-])CC2)cc1,active: 50.1 µM
19,COc1ccc(C2CC(c3ccccc3OC(C)=O)=NN2C(=O)/C=C/c2ccccc2)cc1OC (stereo not drawn),"inconclusive: 70.8 µM [inhibitor, single point]"
20,CC(=O)Oc1ccccc1N(C(C)=O)S(=O)(=O)c1cccc([N+](=O)[O-])c1,"inconclusive: 70.8 µM [inhibitor, single point]"
21,Cc1ccc(NC(=O)Cn2c(=O)c3cccn3c3ccccc32)cc1,inactive
22,CC(Sc1nnnn1-c1ccccc1)C(=O)Nc1ccc(N2CCN(C)CC2)cc1 (stereo not drawn),"inconclusive: 25.1 µM [inhibitor, single point]"
23,COc1ccc(/C=N/Nc2ccc(C(F)(F)F)cc2[N+](=O)[O-])cc1O,"inconclusive: 44.7 µM [inhibitor, partial curve]"
24,Cc1ccc(CCNC(=O)CCN2N=C(c3ccc(C)cc3)CCC2=O)cc1,inactive

row,Structure (SMILES),Potency
1,CCC(ONc1ccccc1C(F)(F)F)(C(=O)NN(C)C)c1ccccc1 (stereo not drawn),"inconclusive: 79.4 µM [inhibitor, single point]"
2,CCCCc1ccc(NC(=O)CSc2nc(=O)n3cc(C)ccc3n2)cc1,"inconclusive: 89.1 µM [inhibitor, single point]"
3,O=c1cc(CO)oc(C(Nc2cccc(C(F)(F)F)c2)c2ccccn2)c1O (stereo not drawn),"inconclusive: 89.1 µM [inhibitor, single point]"
4,CCn1c2ccccc2c2cc(NS(=O)(=O)c3ccc(C)cc3)ccc21,"inconclusive: 89.1 µM [inhibitor, single point]"
5,CCN1C(=O)CC(Sc2ccccc2C(=O)O)C1=O (stereo not drawn),"inconclusive: 100 µM [inhibitor, single point]"
6,COc1ccc(Cl)cc1NC(=O)c1cc(C)nc2c1c(C)nn2-c1ccccc1,inactive
7,O=C(C1CC(c2ccccc2O)=NO1)N1CCCCC1 (stereo not drawn),"inconclusive: 89.1 µM [inhibitor, single point]"
8,Cc1ccc(NCc2nnc(SCC(=O)Nc3cccc(O)c3)n2CC2CCCO2)c(C)c1 (stereo not drawn),"inconclusive: 35.5 µM [inhibitor, partial curve]"
9,COc1cc(OC)c(-c2cc(C(=O)NCc3ccc(F)cc3)c3c(-c4ccccc4)[nH]nc3n2)cc1OC,inactive
10,Cc1noc(NS(=O)(=O)c2ccc(N/C=C/C(=O)c3ccc4c(c3)OCO4)cc2)c1C,"inconclusive: 89.1 µM [inhibitor, single point]"
11,O=C(O)c1ccc(OCCn2ccnc2)cc1,active: 79.4 µM
12,Cc1cc(NC(=O)C2CC(=O)N(c3ccccc3Cl)C2)no1 (stereo not drawn),inactive
13,O=C(CSc1cnc2ccccc2n1)c1ccc(F)cc1,inactive
14,CC(C)c1ccc(OCc2ccc(C(=O)N(C)C)o2)cc1,"inconclusive: 89.1 µM [inhibitor, single point]"
15,O=C(O)c1cc(N=Nc2c(O)[nH]c3ccc([N+](=O)[O-])cc23)ccc1Cl,"inconclusive: 39.8 µM [inhibitor, full curve]"
16,O=C(O)c1ccccc1SSc1ccccc1C(=O)O,inactive
17,C/C(=N\NC(=O)c1cccc(O)c1)c1ccc(NC(=O)Cc2ccccc2)cc1,inactive
18,COc1ccc(S(=O)(=O)N2CCN(C3CCCC(C)C3)CC2)cc1 (stereo not drawn),active: 17.8 µM
19,C=CCN1CCN(C(=O)CCc2ccccc2)CC1,inactive
20,C/C(=C/C(=O)N1CCc2ccccc21)C(=O)O,"inconclusive: 70.8 µM [inhibitor, single point]"
21,O=c1c2cc(-c3ccccc3)sc2nc2n1CCC2,inactive
22,O=C(Oc1ccc(N2C(=O)C3C4CCC(C4)C3C2=O)cc1)c1ccco1 (stereo not drawn),inactive
23,NC(N)=N/N=C/c1ccc(OCc2ccccc2)c(OCc2ccccc2)c1,active: 39.8 µM
24,Cc1nn(C)cc1/C=N\NC(=O)c1ccc2c(c1)c(C)c(C)n2Cc1ccccc1,active: 44.7 µM
